Source: PMC4336329 (PLoS ONE, 2015)
The campaign covered roughly 310,000 compounds. About 14,000 (4.5%) showed an effect of 50% or more. Effects have a minus sign here. The list shows a part of the results.

Biological target: human ether-à-go-go-related gene (hERG) potassium channel (human, UniProt Q12809)
Assay: primary screen, population patch clamp on CHO cells stably expressing hERG
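Also: peak tail current of the secondary pulse compared with the same well before compound.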

Chain of human ether-à-go-go-related gene (hERG) potassium channel (Q12809 whole entry, looked up): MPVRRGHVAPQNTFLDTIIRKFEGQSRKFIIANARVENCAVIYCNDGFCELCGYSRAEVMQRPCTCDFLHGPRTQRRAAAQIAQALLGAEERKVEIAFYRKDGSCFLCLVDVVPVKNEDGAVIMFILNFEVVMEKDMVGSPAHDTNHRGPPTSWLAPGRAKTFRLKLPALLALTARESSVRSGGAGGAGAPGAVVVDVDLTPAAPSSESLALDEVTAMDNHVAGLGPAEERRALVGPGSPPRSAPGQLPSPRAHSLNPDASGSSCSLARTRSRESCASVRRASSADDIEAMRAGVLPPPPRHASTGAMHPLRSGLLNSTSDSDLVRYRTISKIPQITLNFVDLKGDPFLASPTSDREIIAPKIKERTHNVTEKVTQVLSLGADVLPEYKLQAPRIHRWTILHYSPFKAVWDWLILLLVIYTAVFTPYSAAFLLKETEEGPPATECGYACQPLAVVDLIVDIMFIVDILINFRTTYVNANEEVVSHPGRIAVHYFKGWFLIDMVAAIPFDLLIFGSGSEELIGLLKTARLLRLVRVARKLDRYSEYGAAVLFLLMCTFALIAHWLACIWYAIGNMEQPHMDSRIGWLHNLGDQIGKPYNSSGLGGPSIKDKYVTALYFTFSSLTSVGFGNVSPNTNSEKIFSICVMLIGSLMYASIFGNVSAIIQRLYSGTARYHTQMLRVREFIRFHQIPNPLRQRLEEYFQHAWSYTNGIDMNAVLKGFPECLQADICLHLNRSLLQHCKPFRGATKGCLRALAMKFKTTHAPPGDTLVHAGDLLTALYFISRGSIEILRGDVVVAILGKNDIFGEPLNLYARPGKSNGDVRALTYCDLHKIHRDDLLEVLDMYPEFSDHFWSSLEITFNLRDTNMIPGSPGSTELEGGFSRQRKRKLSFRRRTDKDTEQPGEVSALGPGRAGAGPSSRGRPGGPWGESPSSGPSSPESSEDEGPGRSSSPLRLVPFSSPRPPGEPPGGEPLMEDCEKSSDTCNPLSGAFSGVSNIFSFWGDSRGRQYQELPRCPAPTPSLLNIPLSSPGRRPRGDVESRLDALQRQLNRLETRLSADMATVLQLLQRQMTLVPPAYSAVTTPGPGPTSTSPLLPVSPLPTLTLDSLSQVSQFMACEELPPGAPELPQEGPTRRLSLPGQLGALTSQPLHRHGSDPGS

Row | Compound | hERG current change (%, negative = inhibition) at 10uM
1 | CC(C)Cn1c(N)c(C(=O)COC(=O)c2cc(F)cc(F)c2)c(=O)n(C)c1=O | -42.1%
2 | COCCn1c(SCC(=O)N2CC(=O)Nc3ccccc32)nc2ccccc21 | -2.29%
3 | Cc1[nH]c2ccccc2c1/C=N/Nc1ccccc1[N+](=O)[O-] | 12.1%
4 | CC#CP(=O)(OCC)C(O)(c1ccccc1)C(F)(F)F (stereo not drawn) | -3.29%
5 | CCN(CC)C(=O)C1CCCN(Cc2sccc2C)C1 (stereo not drawn) | 11.6%
6 | CSc1nsc(SC)c1NC(=O)N1CCCC1 | -13.1%
7 | CCCS(=O)(=O)c1c(S(=O)(=O)CCC)c2c(C)cccn2c1C(=O)OC | 9.4%
8 | CN(Cc1ccccc1NS(=O)(=O)c1ccc(Cl)cc1)C1CCCCC1.Cl | -25%
9 | CCCN(CCC)C(=O)Nc1cc(Cl)ccc1OC | -3.32%
10 | CCOC(=O)c1c(NC(=S)NC(=O)c2ccc(Cn3cc(Cl)cn3)o2)sc2c1CCCCC2 | 13.2%
11 | Oc1ccc(/C=N/NC(=S)NCC2CCCO2)cc1 (stereo not drawn) | 2.06%
12 | Cc1ccc(Cl)cc1NC(=O)CN1C(=O)COc2ccc(S(=O)(=O)N3CCOCC3)cc21 | 19.2%
13 | CCc1ccc(S(=O)(=O)Nc2c(C)nn(C)c2C)cc1 | 4.47%
14 | COc1cccc(CNC(=O)CCC2CCCN(c3cc(C)nc(N(C)C)n3)C2)c1 (stereo not drawn) | -62.4%
15 | CC(C)(C)[C@H]1C=C(C(=O)O)O[C@@H](OCc2ccc(CO)cc2)C1 | 20%
16 | NC(=O)C1CC(=O)N(c2ccc(OCc3c(F)cccc3Cl)cc2)C1 (stereo not drawn) | 9.14%
17 | COC(=O)CSc1nnc2n(-c3ccc(OC)cc3)c(=O)c3c4c(sc3n12)CCCCC4 | -10.6%
18 | Oc1ccc(Br)cc1CNn1cnnc1 | 13.9%
19 | COc1ccc(C2CC(c3ccccc3)=NN2C(=O)CSc2ncn[nH]2)cc1 (stereo not drawn) | -1.26%
20 | CC1=CC(C)(C)NC(=S)N1c1ccc2ccccc2c1 | -9.82%
21 | Cc1ccc(S(=O)(=O)N2CCN(c3cnn(-c4ccccc4)c(=O)c3Cl)CC2)cc1 | 4.47%
22 | CCOc1ccc2nc(SCC(=O)N3CCCc4ccccc43)sc2c1 | -18.7%

Row | Compound | hERG current change (%, negative = inhibition) at 10uM
23 | COc1ccc2nc(NC(=O)C3COc4ccccc4O3)sc2c1 (stereo not drawn) | 0.282%
24 | CCC(C)N(C(=O)COC(=O)Cc1n[nH]c(=O)c2ccccc12)C1CCS(=O)(=O)C1 (stereo not drawn) | 12.3%
25 | CCCOC(=O)Nc1sc2c(c1C(=O)OCC)CCC2 | -7.86%
26 | N#Cc1c(NC(=O)CCCN2C(=O)c3ccccc3C2=O)oc(-c2ccccc2)c1-c1ccccc1 | -4.58%
27 | CC(C)(C)c1ccc(C(=O)NNc2ccc(F)cc2F)cc1 | 9.96%
28 | Cc1ccc2nc(-c3ccccc3)cc(C(=O)N3CCc4ccccc4C3)c2c1 | -3.74%
29 | CCc1ccccc1NC(=O)CCS(=O)(=O)c1ccc(Br)cc1 | 13.8%
30 | O=C(CCCn1c(=O)c2cccn2c2cccnc21)NCCc1ccc(Cl)cc1 | -40.6%
31 | C#CCNc1c2c(nc3nnnn13)CCCC2 | 11.2%
32 | Cc1cc(S(=O)(=O)c2cc3ccc(O)c(C)c3oc2=O)ccc1F | 22.6%
33 | Cc1ccc(C)c(C(=O)CCC(=O)Nc2cccnc2)c1 | 7.26%
34 | CCCNC(=O)C(Cc1ccccc1C)NC(=O)c1ccc(C(F)(F)F)cc1 (stereo not drawn) | 14.7%
35 | O=C(O)c1ccccc1N(c1ccccc1)c1ccccc1 | 17%
36 | CCOC(=O)C1(C)NC(c2ccco2)C2C(=O)N(CC)C(=O)C21 (stereo not drawn) | 8.65%
37 | O=C(COC(=O)C1CCN(C(=O)c2ccc(Cl)cc2)CC1)Nc1ccccc1F | -56.9%
38 | O=C(NCCNc1ccc([N+](=O)[O-])cc1)c1cc(F)c(F)cc1Cl | -45.1%
39 | CC1(C)C(C=C(Cl)Cl)C1C(=O)N1CCN(Cc2ccccc2)CC1 (stereo not drawn) | -27.9%
40 | COCCN(Cc1nc(-c2ccc(C(F)(F)F)cc2)no1)C(C)C | 2.03%
41 | C/C(=C1\SC(N2CCOCC2)=NC1=O)c1ccc(C)cc1 | -10.8%
42 | O=C(Nc1nccs1)c1nc[nH]c1C(=O)NCc1ccccc1 | 3.34%
43 | COc1cc(C(=O)Oc2ccc(C(=S)N3CCOCC3)cc2)cc(OC)c1OC | 12.2%
44 | COCCNC(=O)c1ccc(NC(C)=O)cc1 | 6.98%

Row | Compound | hERG current change (%, negative = inhibition) at 10uM
45 | COC(=O)c1ccc2c(c1)N(C)C(=O)CS2 | -7.15%
46 | CCc1ccccc1NC(=O)CNC(=O)c1cn(Cc2ccccc2)nc1-c1cccnc1 | -9.32%
47 | O=C(CN(C(=O)Cn1nnc(-c2ccc(F)cc2)n1)c1cccc(F)c1)NC1CCCC1 | 7.98%
48 | CN(CCOC(=O)C1c2ccccc2Oc2ccccc21)C(C)(C)C.Cl | -35%
49 | O=C(NC1CCS(=O)(=O)C1)c1ccccc1C(=O)c1ccccc1 (stereo not drawn) | 9.94%
50 | CCOC(=O)COc1nc(-c2ccc(Cl)cc2)cc(-c2ccco2)c1C#N | -3.2%
51 | O=c1oc2ccccc2n1CSC1=NCCS1 | -6.31%
52 | Oc1c(C(c2ccccc2)N2CCCCC2)sc2ncnn12 (stereo not drawn) | -8.46%
53 | CC1(C)Oc2ccc3ccc(=O)oc3c2/C(=C/Nc2ccccn2)C1=O | 13.4%
54 | CN(C(=O)COC(=O)CNC(=O)c1ccc(C(C)(C)C)cc1)c1c(N)n(Cc2ccccc2)c(=O)[nH]c1=O | -0.48%
55 | Cc1ccc(CN2CCc3[nH]c(=O)[nH]c(=O)c3C2)cc1 | 17.5%
56 | Cc1cccc(CN2CCN(C(=O)Cc3ccccc3)CC2)c1.O=C(O)C(=O)O | 4.99%
57 | COC(=O)c1ccc(NC(=O)COC(=O)c2nc3nccc(C)n3n2)cc1 | -13.9%
58 | C=CCOc1c(/C=N\NC(N)=O)cccc1OC | 10.4%
59 | O=C(N/C(=C/c1cn(-c2ccccc2)nc1-c1ccccc1)C(=O)N1CCOCC1)c1ccccc1 | 3.1%
60 | Nc1ccc(-c2cc(N)n(-c3ccccc3)n2)cc1 | 0.669%
61 | C=CCNC(=S)NC(=O)c1oc2ccccc2c1C | 20.3%
62 | CC(C(=O)N(C)C1CCCCC1)N1CCC(C(N)=O)CC1 (stereo not drawn) | 25%
63 | COC(=O)c1sccc1-n1cccc1C(=O)NCc1ccccc1 | 13%
64 | CNC(=S)Nc1ccc(OC(F)(F)F)cc1 | 5.44%
65 | COc1ccccc1Nc1nc(N)nc(CSC(=S)N2CCN(c3ccccc3)CC2)n1 | 6.86%
66 | Cc1cccc2[nH]c(CN(C)Cc3nc(CC4CC4)no3)nc12 | -11.8%

Row | Compound | hERG current change (%, negative = inhibition) at 10uM
67 | COc1cc(CNC(C)C23CC4CC(CC(C4)C2)C3)ccc1OCC(=O)NC(C)(C)C.Cl (stereo not drawn) | -4.99%
68 | Cc1c(C)c2ccc(OCC(=O)NC(Cc3ccc(Cl)cc3)C(=O)O)cc2oc1=O (stereo not drawn) | 2.67%
69 | COC(=O)C1=C(c2c(C)noc2C)C[C@@H]2CC[C@H]1N2C(=O)N1CCC(C)CC1 | 3.62%
70 | CCCn1c(C2CCCN2c2nc(-c3ccc(OC)cc3)cs2)nc2ccccc21 (stereo not drawn) | 13.2%
71 | O=C(NC(=S)NCCc1ccc(Cl)cc1)c1ccco1 | 23.6%
72 | CC(=O)Nc1ccc(S(=O)(=O)N(CCO)Cc2ccccc2)cc1 | 8.86%
73 | NC(=O)CC(NC(=O)Cc1cccc2ccccc12)c1ccc(N2CCCCCC2)c([N+](=O)[O-])c1 (stereo not drawn) | 1.13%
74 | NC1=NC(c2ccccc2Cl)n2c(nc3ccccc32)N1 (stereo not drawn) | -4.63%
75 | CCOc1ccc(NC(=O)CN(C)C(=O)c2ccc3nc(CC)c(CC)nc3c2)cc1OCC | -34.8%
76 | CC(=O)c1sccc1NC(=O)c1ccccc1C(=O)O | 7.63%
77 | COc1cccc(CC(=O)OCC(=O)Nc2nnc(-c3ccccc3)o2)c1 | -8.21%
78 | C#CCOCCOCCOCCNc1nc(N2CCN(C(=O)[C@H]([C@@H](C)CC)n3cc(CCCC[NH3+])nn3)CC2)nc(N2CCN(C(=O)[C@H](C)n3cc(CCC(=O)O)nn3)CC2)n1.[Cl-] | 10.5%
79 | Nc1cc(C(=O)OCC(=O)N2CCCC2=O)ccc1Cl | 7.8%
80 | O=C(N/N=C/c1ccc(N2CCOCC2)cc1)c1cccs1 | 16.3%
81 | C/C(=N/NC(=O)CC(=O)N/N=C(\C)c1ccc([N+](=O)[O-])cc1)c1ccc([N+](=O)[O-])cc1 | -28.8%
82 | CCn1nnc(NC(=O)c2ccc(-c3ccc(Cl)cc3)o2)n1 | -53.5%
83 | CCOC(=O)Cc1csc(NC(=O)/C=C\c2ccccc2Cl)n1 | 0.187%
84 | CCN(CC(=O)NCc1cccs1)C(=O)/C=C/c1cc(Br)ccc1OC(F)F | -40.8%
85 | COc1ccc(Oc2nccc(-c3ccc(F)cc3)c2C#N)cc1 | 1%
86 | O=C1c2c(O)cc(O)cc2O[C@@]12c1c(cc(O)c3c1O[C@H](c1ccc(O)cc1)[C@@H](O)C3)O[C@@H]2c1ccc(O)cc1 | 27.2%
87 | Cn1c(=O)n(-c2ccccc2)c(=O)c2c3c(sc21)COC(C)(C)C3 | 0.657%
